Laboratory results taken from publication PMC4336329 (PLoS ONE, 2015).
In all, about 310,000 compounds went through this assay and about 14,000 (4.5%) showed an effect of 50% or more. Effects have a minus sign here. This is one part of the list.

target: human ether-à-go-go-related gene (hERG) potassium channel (human, UniProt Q12809); test: primary screen, population patch clamp on CHO cells stably expressing hERG
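Note: peak tail current of the secondary pulse compared with the same well before compound.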

human ether-à-go-go-related gene (hERG) potassium channel, sequence (Q12809 whole entry, looked up): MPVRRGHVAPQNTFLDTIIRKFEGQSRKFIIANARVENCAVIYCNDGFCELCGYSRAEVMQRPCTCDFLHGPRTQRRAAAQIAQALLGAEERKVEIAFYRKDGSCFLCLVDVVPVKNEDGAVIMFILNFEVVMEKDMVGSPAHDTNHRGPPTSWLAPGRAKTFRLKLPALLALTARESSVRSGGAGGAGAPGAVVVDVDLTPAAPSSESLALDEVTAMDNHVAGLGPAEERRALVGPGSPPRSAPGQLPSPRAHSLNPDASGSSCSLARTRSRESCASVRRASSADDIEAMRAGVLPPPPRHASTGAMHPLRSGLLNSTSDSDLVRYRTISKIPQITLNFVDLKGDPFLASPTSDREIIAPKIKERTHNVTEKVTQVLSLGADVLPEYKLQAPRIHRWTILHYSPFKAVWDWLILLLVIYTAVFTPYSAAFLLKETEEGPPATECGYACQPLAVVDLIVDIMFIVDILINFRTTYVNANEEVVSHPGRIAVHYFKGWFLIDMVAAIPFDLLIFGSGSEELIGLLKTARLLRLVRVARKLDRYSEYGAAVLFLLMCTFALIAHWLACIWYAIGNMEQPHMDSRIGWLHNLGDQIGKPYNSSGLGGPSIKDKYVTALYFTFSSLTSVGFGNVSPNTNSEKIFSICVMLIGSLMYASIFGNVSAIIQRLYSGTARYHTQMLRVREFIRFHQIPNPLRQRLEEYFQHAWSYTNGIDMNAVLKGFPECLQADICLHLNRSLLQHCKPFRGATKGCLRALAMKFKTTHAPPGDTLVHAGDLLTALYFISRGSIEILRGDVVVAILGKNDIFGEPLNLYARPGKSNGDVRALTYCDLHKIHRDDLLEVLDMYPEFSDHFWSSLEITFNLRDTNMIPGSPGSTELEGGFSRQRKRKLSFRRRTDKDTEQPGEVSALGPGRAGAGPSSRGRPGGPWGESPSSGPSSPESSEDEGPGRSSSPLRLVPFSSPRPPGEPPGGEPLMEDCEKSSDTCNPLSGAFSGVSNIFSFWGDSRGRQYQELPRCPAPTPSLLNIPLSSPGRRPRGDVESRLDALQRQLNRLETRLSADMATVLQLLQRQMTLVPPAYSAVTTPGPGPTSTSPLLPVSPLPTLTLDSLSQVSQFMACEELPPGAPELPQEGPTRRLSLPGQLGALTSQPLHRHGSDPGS

| SMILES | hERG current change (%, negative = inhibition) at 10uM [%] |
| --- | --- |
| COc1ccc(NC(=O)C(C)N2c3cccc4cccc(c34)S2(=O)=O)cc1 (centres unmarked) | -8.6 |
| O=C1/C(=C\c2ccc(Cl)cc2Cl)N2CCC1CC2 | 5.03 |
| O=C(NCCOc1cccnc1)C1CCC(=O)N(Cc2ccccc2F)C1 (centres unmarked) | 11.2 |
| CCN1C(=O)[C@@H]2Cc3c([nH]c4ccccc34)C(c3cc(OC)c(OC)c(OC)c3)N2C1=S (some centres unmarked) | -7.32 |
| COc1ccccc1Oc1c(C)oc2c(CN3CCOCC3)c(O)ccc2c1=O | 13.4 |
| CCOC(=O)C1CCCN(CC(O)COc2ccc(OC)cc2C(C)(C)C)C1 (centres unmarked) | -61.4 |
| CCCCNC(=O)Nc1nnc(-c2ccccc2)o1 | -14.5 |
| C[C@H](NC(=O)C1CCN(S(=O)(=O)c2ccccc2)CC1)C(=O)NCc1ccccn1 | 20.6 |
| CN(Cc1ccco1)S(=O)(=O)c1cc(F)ccc1CN1C(=O)c2cccnc2C1=O | -47.6 |
| O=C(O)C1CCCCC1C(=O)NCc1ccc2c(c1)OCO2 (centres unmarked) | 1.76 |
| CCc1c(C(=O)N/N=C/c2ccsc2)csc1C | 6.13 |
| CCOc1ccc2[nH]c3c(NCCO)ncnc3c2c1 | 23.1 |
| COc1ccc(NC(=S)N2CCN(C/C=C/c3ccccc3)CC2)c(OC)c1 | -64.2 |
| COc1ccccc1OCCn1c(C)c(C=O)c2ccccc21 | -2.11 |
| Cc1ccc(C(=O)Nc2nncs2)cc1S(=O)(=O)N1CCOCC1 | -3.86 |
| O=C(N1CCCCCC1)n1c(Cc2ccccc2)nc2ccccc21 | -30.5 |
| COc1ccc(C(=O)N2CC(=O)N(CCc3ccccc3)C(=O)C2)cc1OC | -15.1 |
| O=C(COC(=O)/C=C/c1ccco1)Nc1ncc(C(F)(F)F)cc1Cl | -11.6 |
| COc1ccc(C(=O)c2c[nH]c(C(=O)NCc3ccco3)c2)cc1 | 5.33 |
| CCOC(=O)c1cnc(-n2nc(C)cc2C)[nH]c1=O | 3.62 |
| O=C(O)c1ccc2c(c1)C(=O)N(C(Cc1ccc(O)cc1)C(=O)O)C2=O (centres unmarked) | -6.54 |
| CCc1nnc(NC(=O)CSC(=S)N2CCOCC2)s1 | 14.6 |
| COCCCn1c(-c2ccc(OC)cc2)cc(C(=O)NC2CCCCCCC2)c1C | -19.6 |

| SMILES | hERG current change (%, negative = inhibition) at 10uM [%] |
| --- | --- |
| Cc1ccc(C)c(NC(=O)C(Sc2cccc[n+]2[O-])c2ccccc2)c1 (centres unmarked) | 0.828 |
| COc1cc(C(=O)O)cc(NC(=O)c2cccs2)c1OC | 13 |
| CCN(Cc1cc(=O)[nH]c2ccccc12)C(=O)C(C)C | -2.37 |
| COc1cccc(C(c2c(N)n(C)c(=O)n(C)c2=O)C(C)[N+](=O)[O-])c1 (centres unmarked) | 6.06 |
| CCOC(=O)N1CCN(C(=O)c2cc(COc3ccc(F)cc3F)on2)CC1 | -17.1 |
| CCN(CC)S(=O)(=O)c1ccc(N2CCCC2)c(NC(=O)c2ccccc2OC)c1 | -65.7 |
| CCCc1cc(C(=O)Nc2nccs2)cs1 | -10.3 |
| CS(=O)(=O)N1CCN(c2ccccc2NC(=O)C(c2ccccc2)c2ccccc2)CC1 | 3.92 |
| Cc1cccc(C)c1NC(=O)N1CC(C)OC(C)C1 (centres unmarked) | 39 |
| O=C(Cn1c(=O)n(-c2ccc(F)cc2)c(=O)c2sccc21)N1CCCC1 | -0.0328 |
| COc1ccccc1Cn1c(=S)[nH]c2cc(C(=O)NCCN(C)C)ccc2c1=O | -4.42 |
| Cc1cc2cc(CN(CCN(C)C)C(=S)NCc3ccco3)c(=O)[nH]c2cc1C | -43.8 |
| Cc1c(C)n(C)c2ccc(C(=O)NCCc3ccco3)cc12 | -4.88 |
| Cc1ccc(C(=O)NC(=S)N(C)Cc2ccccc2)cc1 | 17.3 |
| O=C(Cc1ccccc1)NCC1CCCO1 (centres unmarked) | 2.17 |
| CCCn1c(=O)c2ccccc2n2c(SCc3nnc(-c4ccccc4Br)o3)nnc12 | -0.727 |
| COC(=O)CC1=NN(c2nc3ccccc3s2)C(=O)/C1=C/N(C)C | -18.4 |
| O=C(CC1C(=O)NCCN1Cc1cccc(Oc2ccccc2)c1)NCCc1ccccn1 (centres unmarked) | 1.32 |
| Cc1ccc(C(=O)N2CCC(C(N)=O)CC2)cc1C | 2.63 |
| Oc1ccc(/C=C/c2cnccn2)cc1 | 6.91 |
| COc1ccc(N/C=C/C(=C(C#N)C#N)N(C)C)cc1 | 14.5 |
| COc1ccc(N=C(N)SCc2ccccn2)cc1.Cl | -30.9 |
| CCc1noc(C)c1C(=O)Nc1nnc(C(CC)CC)s1 | -16.9 |

| SMILES | hERG current change (%, negative = inhibition) at 10uM [%] |
| --- | --- |
| O=C(Cc1cc(=O)[nH][nH]1)N/N=C/c1c(Cl)cccc1Cl | 15.9 |
| COc1ccc(/C=N\NC(=O)c2ccccc2)cc1COc1ccccc1 | 20.6 |
| CN(C)CCCn1c2c(c(SCC(=O)Nc3nccs3)nc1=O)CCC2 | -9.32 |
| Cc1cc(C(=O)OCC(=O)Nc2ccc(F)c(F)c2)c(C)o1 | 14.7 |
| CC12CCC(C(=O)Nc3ccccc3Cl)([C@H](Br)C1=O)C2(C)C (some centres unmarked) | 15.9 |
| COc1ccc(OC)c(C(=O)CSc2nccc(-c3ccc(Br)cc3)n2)c1 | 3.37 |
| Cn1c(-n2c(CCCN3C(=O)c4ccccc4C3=O)nc3ccccc3c2=O)nc2ccccc21 | -12.4 |
| N#C/C(=C(/O)c1ccc(C(=O)c2ccccc2)cc1)c1nc2ccccc2[nH]1 | 2.95 |
| O=C(O)C1CCN(S(=O)(=O)N2CCOCC2)CC1 | -3.68 |
| COc1ccc(CNC(=O)CN(C(=O)CCC(=O)Nc2nccs2)c2cccc(C)c2)cc1 | 33.3 |
| CCCN(CCC)CCCNC(=O)c1cn(CCOC)c(=O)c2c1c1ccccc1n2C | -10.6 |
| O=C(O)C(Cc1ccccc1)N1C(=O)C2CCCCC2C1=O (centres unmarked) | 13.3 |
| COc1ccc(-c2cnc(SCCNC(=O)c3ccc4c(c3)OCO4)[nH]2)cc1 | -5.44 |
| COc1ccc(C(=O)c2c[nH]c(C(=O)N=CN(C)C)c2)cc1 | 10.2 |
| CCn1nc(NC(=O)c2cccs2)c2cc3ccccc3nc21 | -21 |
| CC(C)CNc1ncnc2c1cnn2Cc1ccccc1Cl | -12.8 |
| C=C(C)C(=O)N1CC2(CC(c3cccc(NC(=O)COc4ccc(Cl)cc4)c3)=NO2)C[C@@H]1C(N)=O (some centres unmarked) | -15.3 |
| Cc1ccc(Oc2c(C=O)c3ccccc3n2C)cc1 | -8.24 |
| O=C(O)c1cccc(S(=O)(=O)Nc2ccccc2N2CCOCC2)c1 | -22 |
| Cc1ccc(Oc2cc(NC(=O)CCCn3nc([N+](=O)[O-])c(Cl)c3C)cc([N+](=O)[O-])c2)cc1 | 4.54 |
| C/C(N)=C(/C#N)C(=O)COC(=O)Cc1coc2ccc3ccccc3c12 | 24.3 |
| CCC(=O)c1ccc(OCC(O)CN2CCN(c3ccc(F)cc3)CC2)cc1 (centres unmarked) | -26.8 |
| CCCn1ncc(CN2CCC(n3nccc3NC(=O)c3ccccc3Cl)CC2)c1C | -75.8 |

| SMILES | hERG current change (%, negative = inhibition) at 10uM [%] |
| --- | --- |
| Nn1c(COc2cccc(Br)c2)nnc1SCC(=O)N1CCc2ccccc2C1 | -27 |
| C=CCNC(=O)Cc1c(OC)ccc2cc(Br)ccc12 | -0.948 |
| O=C(N/N=C/c1cccc([N+](=O)[O-])c1)c1cc(-c2ccccc2)nc2ccccc12 | 7.64 |
| CCN(CC)S(=O)(=O)c1cc(C(=O)Nc2cc(C)[nH]n2)ccc1Cl | -10.3 |
| COc1ccc(NS(=O)(=O)c2ccc3c(c2)CCC(=O)N3)c(OC)c1 | -10.4 |
| COCCNC(=S)N/N=C/c1ccc(N2CCOCC2)cc1 | 10.3 |
| O=C(CSCc1ccco1)Nc1cc(C(F)(F)F)ccc1N1CCOCC1 | -49 |
| CCOC(=O)N/N=C(C)/C=C/c1ccccc1 | 15.7 |
| CCN(C(=O)c1ccnc(C(C)(C)C)c1)c1ccccc1 | -4.86 |
| COc1ccc(S(=O)(=O)Cc2ccc(C(=O)N3CCC(C(N)=O)CC3)o2)cc1 | 11.1 |
| Cc1c(CCO)c(=O)oc2n[nH]c(-c3ccccc3)c12.Cl | 6.37 |
| C/C(Cn1nnc([N+](=O)[O-])n1)=N\NC(=O)c1ccccc1Cl | -2.2 |
| Cc1cc(=O)nc2c3ccccc3n(CC(=O)NCCCN3CCOCC3)n12 | 17.6 |
| O=C(O)CCS(=O)(=O)c1nc(-c2cccs2)cc(C(F)(F)F)n1 | 0.386 |
| CCOC(=O)c1c(NC(=O)Cc2cccs2)sc(C(=O)NC2CCCCC2)c1C | 13 |
| CCOc1ccc(C(=O)OCC(=O)Nc2cccc(S(=O)(=O)N3CCCC3)c2)cc1 | -8.49 |
| CCc1nnc(NC(=O)C2CCCN2C(=O)Nc2ccc(C)cc2)s1 (centres unmarked) | 13.3 |
| Cc1cc(C)nc(NC(=NCCc2c[nH]c3ccccc23)NC(=O)c2ccco2)n1 | 7.46 |
| CCOC(=O)C1CCN(Cc2cccc(OCc3ccccc3)c2)CC1.O=C(O)C(=O)O | -43.2 |
| O=C(O)CNC(=O)c1ccc(OC(F)F)cc1 | 7.84 |
